According to PMC12136788:
The other results are listed elsewhere or left out.

B1: ENSG00000104047:stop:overlap|stop_codon|ENSG00000104047|stop_codon|NA|stop_codon (ssRNA)
RNA: GGGAGUUCUACAGUCCGACGAUCACCAGUUGAUAAAGAAUGCCAAAUGCUCUGGAGAUAAGGAAACAGGAAAACUUACACAUUAGUUUUUAACAAGCCACUUAUGUCUUUUUAUUUUGCUAACAUUAAUAAACUUAUAUUUGUCAACAGAGGAUUGAGCAUCA
B2: chr4:119293926:119294030:+|3pUTR|ENSG00000145390|unk|total|mutant (ssRNA)
RNA: GGGAGUUCUACAGUCCGACGAUCGAUGGAAUUUAAUUUUGCUCCCCGAAUUUUUGUCUUCAGAAUAUCCCGUUAAGAUAAAUCCGGCCUUUGACUAUUACCGGUAUUCAUAAAUGCUACUUCCGCCAUGUAAGUUAAAAAGUUCAACAGAGGAUUGAGCAUCA
B3: chr4:155836688:155836857:-|CDS|ENSG00000256394|control|control|control (ssRNA)
RNA: GGGAGUUCUACAGUCCGACGAUCUAAGGAUUUAUGUACAGUAGGAACACAUAACUCUAGCUGCCCCGUUUCUUGUGAAGAAAUAGAAUACCCGGCCACUAUUUCUUAUUCCUCUUUUCCAAGUCAAAAAGCUUUGAAAUAUCUCAACAGAGGAUUGAGCAUCA
B4: chr2:53865134:53865235:-|3pUTR|ENSG00000068878|unk|FALSE|unique (ssRNA)
RNA: GGGAGUUCUACAGUCCGACGAUCGUCCUGUCAUUUCAUUCAUCUCAAAUUAUUUUGAAUUCUUCCCAAAUGGCUGCUGGAUUUAGGUGGUAAUAGGGGCUGUGGGCCAUAAAUCUGAAGCCUUGAGAACCUUGGGUCUGGAGACAACAGAGGAUUGAGCAUCA
B5: chr1:46316673:46316776:+|3pUTR|ENSG00000173660|unk|FALSE|unique (ssRNA)
RNA: GGGAGUUCUACAGUCCGACGAUCUGUUUCUUAUUUGUGUAACUGUAAGUUCACAUGAACCUCAUGGGUUUGGCUUAGGCUGGUAGCUUCUAUGUAAUUCGCAAUGAUUCCAUCUAAAUAAAAGUUCUAUGAUCUGCAAACCUGCAACAGAGGAUUGAGCAUCA
B6: chr5:147393259:147393361:-|3pUTR|ENSG00000113657|msi1_unk|total|mutant (ssRNA)
RNA: GGGAGUUCUACAGUCCGACGAUCAGACCCAACCAUUUCUUCCACCUGCUUGAUUGUGCCAGUGUUUGCUCAGGCCUCUUUCUCCGUGUUGCUUUCAAAUCCUUCUCUUUCCUGGGUUGGGAAGGCCAGGCAGGGACAGAGCAACAACAGAGGAUUGAGCAUCA
B7: chr17:81509976:81510077:-|3pUTR|ENSG00000184009|msi1|FALSE|unique (ssRNA)
RNA: GGGAGUUCUACAGUCCGACGAUCUCUCGAUUCUUUGAAGAGAUGACAACAAAUUUUGGUUUUCUACUGUUAUGUGAGAACAUUAGGCCCCAGCAACACGUCAUUGUGUAAGGAAAAAUAAAAGUGCUGCCGUAACCAAUGAAUCAACAGAGGAUUGAGCAUCA
B8: chr7:108502517:108502634:-|CDS|ENSG00000135241|unk|FALSE|unique (ssRNA)
RNA: GGGAGUUCUACAGUCCGACGAUCAUUAUUCCAUAUUUAUUACGACUGAGACAAAUUAAGGAUGAAACUCUUCAGGCUGCAGUUAGAGAAAUUUUGGCCCUAAUUGGCUAUGUGGAUCCAGUGAAAGGGAGAGGAAUCCGAAUUCAACAGAGGAUUGAGCAUCA
B9: chr7:20412513:20412614:+|3pUTR|ENSG00000105855|msi1|total|mutant (ssRNA)
RNA: GGGAGUUCUACAGUCCGACGAUCUCCUUAAAAAUCCAGAGUUUAUAUUUUUUUUAUACCCUCACUUGUUUGCACUAACUUUACCGUGGACCAAGGCUGUUACCACCGGAAGGGACAAACUUCCUUGCCGGCAACUCAGUGUUACAACAGAGGAUUGAGCAUCA
B10: chr8:93925380:93925481:+|3pUTR|ENSG00000164951|msi1|FALSE|unique (ssRNA)
RNA: GGGAGUUCUACAGUCCGACGAUCAUUUAUUUCUAAAUGUUUUGACUGGGCAUUUUUCUUUUAAUGAAAUAUGUGGACUGCUCUAGCAAACCCUAUUUUCAGCUACUAUUUGAAUAUUCUUGAACACCACCACUGAAGAGUUUCCAACAGAGGAUUGAGCAUCA
B11: chr11:111726697:111726798:+|3pUTR|ENSG00000170145|unk|total|mutant (ssRNA)
RNA: GGGAGUUCUACAGUCCGACGAUCGGAAGCUUCCAAGCAGUUUUCUCUUCAUCACUACUAACAAACAAAACACUAAGAAGGCUCCGUAUCGCUCUUUUUCUGCGGGGCUACUCUGAAGUACUGACUUGCUUUCCAGUCUGAUUCCAACAGAGGAUUGAGCAUCA
B12: chr10:99879964:99880065:-|CDS|ENSG00000107554|unk|total|mutant (ssRNA)
RNA: GGGAGUUCUACAGUCCGACGAUCCAGAUGCCCUUCAGACCCAGACUCCACCUCCCAGCCAAGGUCAGGGGACUCUGCAGAUGCCGCCCGAGAUGUAAAGCAACCCACUGCCACGCCGAGGAGCUACCGGAACUUCAGGCAUCCCAACAGAGGAUUGAGCAUCA
B13: chr2:89040223:89040519:-|CDS|ENSG00000243290|control|control|control (ssRNA)
RNA: GGGAGUUCUACAGUCCGACGAUCAUCUGUAGGAGACAGAGUCACCAUCACUUGUCGGGCGAGUCAGGGUAUUAGCAGCUGGUUAGCCUGGUAUCAGCAGAAACCAGGGAAAGCCCCUAAGCUCCUGAUCUAUGCUGCAUCCAGCAACAGAGGAUUGAGCAUCA
B14: chr8:41262032:41262394:-|3pUTR|ENSG00000104332|msi1|total|mutant (ssRNA)
RNA: GGGAGUUCUACAGUCCGACGAUCGGCCGUUCUGACCUGUUGCCAGCAGAUACACAGGACAUGGAUGAAAUUCCCGUUUCCUCCCGUUUCUUCCUGCCGUACUCCUCUUUCCGAUCCUAAGUCUCUUACAAAAGCUUUGAAUACCAACAGAGGAUUGAGCAUCA
B15: chr15:59081107:59081211:+|CDS|ENSG00000157450|unk|total|mutant (ssRNA)
RNA: GGGAGUUCUACAGUCCGACGAUCUUCUCAAAUAUCUUCUCAUGCAACAUCUCAUCCUGUGGCACCCCCACCACCAACUCACUCCGCCAGUACAGCUGCACCAAUCCCUCAGCAUCUUCCUCCUACACACCAGCCAAUUUCGCACAACAGAGGAUUGAGCAUCA
B16: chr16:3022182:3022332:+|3pUTR|ENSG00000006327|msi1|total|mutant (ssRNA)
RNA: GGGAGUUCUACAGUCCGACGAUCCCACGGGGGUCACCCUGGGGGGUCCGGGACCUAUUUUUAACACCCGGGGGCUGGCCCACCCGGAGGGCUGGCCCUAAGAUACAGACCCCCCCAACUCCCCAAAGCGGGGAGGAGAUAUUUCAACAGAGGAUUGAGCAUCA
B17: chr15:55376998:55377117:-|CDS|ENSG00000260916|unk|FALSE|unique (ssRNA)
RNA: GGGAGUUCUACAGUCCGACGAUCUAUCUAUAUUGGAACUGCCAGUGAUGAUUCUGAUAUUGUUACCCUUGAGCCACCUAAGUUAGAAGAAAUUGGAAAUCAAGAAGUUGUCAUUGUUGAAGAAGCACAGAGUUCAGAAGACUUCAACAGAGGAUUGAGCAUCA
B18: ENSG00000136451:be:win_4201|3pUTR|ENSG00000136451|bound_else_gene|NA|bound_elsewhere_windowed (ssRNA)
RNA: GGGAGUUCUACAGUCCGACGAUCCCCUUCUGGUUGUAACCUGGUUGAGAGCUUCCCCUUUAUCAGAUUGGCAGCUAAACAGUUGUAUUAGAUAAUCCUUAAAUCUGACAUCCAGCCUGUUACGCUCUAGGGCUCGCUGCUUGGCAACAGAGGAUUGAGCAUCA
B19: chrX:53532849:53532950:-|3pUTR|ENSG00000086758|unk|FALSE|unique (ssRNA)
RNA: GGGAGUUCUACAGUCCGACGAUCGUGCUCCUCAGAUUCUGUGUUCAGAAGGAUUUGCUGCAUUGAGACUUGAAACCUUUGGAUAGGGGAAAAAAUUAUAUAUAUAUAUAUUUUUUUGUUCUGUUUGCAUUUCUUAAUUUGUGCCAACAGAGGAUUGAGCAUCA
B20: chr8:54147534:54147638:+|CDS|ENSG00000137547|unk|total|mutant (ssRNA)
RNA: GGGAGUUCUACAGUCCGACGAUCAAGUAUGGUUAUAUCUUACCUGAUAUCACUAAAGAUGAACUCUUCAAAAUGCUCUGUACCCGGAAGGAUCCAAGGCAGAUUUUCUUUGGUCUUGCUCCAGGAUGGGUGGUGAAUAUGGCCCAACAGAGGAUUGAGCAUCA
B21: chr2:196807445:196807622:-|CDS|ENSG00000187944|control|control|control (ssRNA)
RNA: GGGAGUUCUACAGUCCGACGAUCAAGGGCAGAGGUCUUGAUCUUGGAACAUUUCCAAAUCCUUUCCCCACGAAUGAAAAUCCUAGACCUCUCUCUUUCCAGUCAGAACUUACUGCUUCUGCAUCUGCAGAUUAUGAAGAGCAGCAACAGAGGAUUGAGCAUCA
B22: chr16:74621626:74621727:-|3pUTR|ENSG00000168411|msi1|total|mutant (ssRNA)
RNA: GGGAGUUCUACAGUCCGACGAUCCAUCUCAAAAAAAACAAACAAACAAAAAAAAACCCUGAUGCCAUUCCCAGUCCCCGUUGCCGGACAUCACAUUUAUAAAUCCAGGCUUCCGUCUUCUGGGCUCCACCAGUCUCUGCCCCACAACAGAGGAUUGAGCAUCA

biological target: T1, UNK ZnF1-6 (called full-length) (human, UniProt Q9C0B0 30-357); assay: nsRBNS (natural sequence RNA bind-n-seq); RBNS binding buffer (assumed for nsRBNS): 25 mM Tris pH 7.5, 150 mM KCl, 3 mM MgCl2, 0.01% Triton X-100, 500 ug/ml BSA, 20 U/ml SUPERase-In, 4 C; UNK is unkempt and MSI1 is Musashi-1; names of the RNAs are library labels; protein concentration not given here; high values mean tight binding
T1 sequence: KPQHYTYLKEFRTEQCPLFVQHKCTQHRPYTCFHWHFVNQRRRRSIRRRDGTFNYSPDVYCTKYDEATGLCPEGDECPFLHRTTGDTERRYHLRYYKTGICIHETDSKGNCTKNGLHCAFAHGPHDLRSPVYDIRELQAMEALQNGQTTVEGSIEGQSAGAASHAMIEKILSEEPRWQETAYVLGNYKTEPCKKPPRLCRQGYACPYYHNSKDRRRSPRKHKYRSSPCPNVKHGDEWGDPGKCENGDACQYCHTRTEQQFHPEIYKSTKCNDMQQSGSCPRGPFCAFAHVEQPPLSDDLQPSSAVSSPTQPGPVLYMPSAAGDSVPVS

| Binder | binding signal |
| --- | --- |
| B1 | 0.937 enrichment R |
| B2 | 0.524 enrichment R |
| B3 | 0.576 enrichment R |
| B4 | 0.689 enrichment R |
| B5 | 0.574 enrichment R |
| B6 | 0.641 enrichment R |
| B7 | 0.271 enrichment R |
| B8 | 1.1 enrichment R |
| B9 | 0.607 enrichment R |
| B10 | 0.718 enrichment R |
| B11 | 0.424 enrichment R |
| B12 | 1.07 enrichment R |
| B13 | 0.551 enrichment R |
| B14 | 0.529 enrichment R |
| B15 | 0.944 enrichment R |
| B16 | 0.486 enrichment R |
| B17 | 0.491 enrichment R |
| B18 | 0.608 enrichment R |
| B19 | 0.691 enrichment R |
| B20 | 0.536 enrichment R |
| B21 | 0.395 enrichment R |
| B22 | 1.18 enrichment R |
